# Source: article PMC4336329 (PLoS ONE, 2015)
# Out of some 310,000 compounds screened, about 2,200 (0.71%) showed an effect of 50% or more. Effects have a minus sign here. The list shows a part of the results.
# Target: human ether-à-go-go-related gene (hERG) potassium channel (human, UniProt Q12809)
# Experiment: primary screen, population patch clamp on CHO cells stably expressing hERG
# human ether-à-go-go-related gene (hERG) potassium channel, sequence (Q12809 whole entry, looked up): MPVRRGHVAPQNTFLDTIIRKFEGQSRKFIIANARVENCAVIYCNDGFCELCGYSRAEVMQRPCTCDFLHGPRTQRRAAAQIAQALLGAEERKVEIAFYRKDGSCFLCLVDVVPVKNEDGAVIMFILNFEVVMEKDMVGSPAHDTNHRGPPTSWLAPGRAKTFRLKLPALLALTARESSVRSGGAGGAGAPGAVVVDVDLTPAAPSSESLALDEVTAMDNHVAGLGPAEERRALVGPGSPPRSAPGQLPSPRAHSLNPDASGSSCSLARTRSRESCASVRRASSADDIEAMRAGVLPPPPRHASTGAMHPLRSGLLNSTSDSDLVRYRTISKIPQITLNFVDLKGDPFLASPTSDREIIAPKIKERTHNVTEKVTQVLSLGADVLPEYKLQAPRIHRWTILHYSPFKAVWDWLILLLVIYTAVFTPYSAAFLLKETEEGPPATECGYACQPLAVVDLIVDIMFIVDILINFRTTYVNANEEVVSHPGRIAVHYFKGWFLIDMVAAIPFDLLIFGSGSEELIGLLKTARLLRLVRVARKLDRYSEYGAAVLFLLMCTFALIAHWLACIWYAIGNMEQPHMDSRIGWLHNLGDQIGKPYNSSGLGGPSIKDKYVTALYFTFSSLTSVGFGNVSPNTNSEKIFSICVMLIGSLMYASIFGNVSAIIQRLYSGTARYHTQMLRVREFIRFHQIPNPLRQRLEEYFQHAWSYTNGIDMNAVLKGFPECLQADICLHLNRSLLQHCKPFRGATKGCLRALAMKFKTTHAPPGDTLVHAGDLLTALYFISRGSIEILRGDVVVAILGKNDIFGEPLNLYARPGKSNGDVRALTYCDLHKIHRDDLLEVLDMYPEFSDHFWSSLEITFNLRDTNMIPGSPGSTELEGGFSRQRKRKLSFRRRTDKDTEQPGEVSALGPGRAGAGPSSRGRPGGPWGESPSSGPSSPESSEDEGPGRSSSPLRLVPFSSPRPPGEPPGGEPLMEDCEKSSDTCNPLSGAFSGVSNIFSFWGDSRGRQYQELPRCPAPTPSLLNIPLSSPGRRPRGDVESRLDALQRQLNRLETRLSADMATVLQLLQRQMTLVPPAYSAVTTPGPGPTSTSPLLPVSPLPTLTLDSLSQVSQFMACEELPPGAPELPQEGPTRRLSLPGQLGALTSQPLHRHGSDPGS
row,Compound,"hERG current change (%, negative = inhibition) at 1uM [%]"
1,CCOC(=O)N1CCC(N2CCCC(C(=O)c3cccc(OC)c3)C2)CC1 (stereo not shown),-13.2
2,Cc1nc(SCC(=O)Nc2ccc(F)cc2)c2oc3ccccc3c2n1,13.5
3,CCCCn1c(N)c(N(CCOC)C(=O)c2ccc3c(c2)C(=O)N(c2cc(C)ccc2C)C3=O)c(=O)[nH]c1=O,-2.7
4,COc1ccccc1NC(=O)C(C)OC(=O)CCNS(=O)(=O)c1ccc(C)c(C)c1 (stereo not shown),13.3
5,Cc1ccc(/C=C(\NC(=O)c2ccccc2)C(=O)N2CCCCC2)cc1,2.71
6,O=C(Cn1c(=O)c2c(ncn2Cc2ccccc2)n(Cc2ccccc2)c1=O)N1CCc2ccccc21,6.16
7,Cc1nc2nc(Cc3ccccc3)[nH]n2c(=O)c1Cl,9.02
8,CCCCOc1cc(C)nc(NCc2ccccc2)n1,0.533
9,CCOc1ccc(NC(=S)N(CCN2CCOCC2)Cc2ccc3c(c2)CCCN3CC)cc1,1.94
10,CCC(CC)COC(=O)C1=C(C)NC(=O)NC1c1ccccc1Br (stereo not shown),17.7
11,O=C(O)c1ccccc1N1C(=O)c2cccc3cccc(c23)C1=O,4.32
12,COc1cccc(C(=O)Nc2c3c(nn2-c2ccccc2C)CS(=O)C3)c1OC (stereo not shown),11.1
13,CCCOc1ccc(C(C(=O)OCCN(CC)CC)c2ccccc2)cc1.O=C(O)C(=O)O (stereo not shown),-11.8
14,CC1CN(C(=O)c2cc(F)c(F)cc2Cl)CC(C)O1 (stereo not shown),5.11
15,CC(C)CNC(=O)COC(=O)c1ccccc1OCC(=O)Nc1ccc(Br)cc1,3.95
16,CC(C(=O)Nc1ccc2c(c1)OCO2)n1cnc2c1c(=O)n(C)c(=O)n2C (stereo not shown),11.9
17,O=c1[nH]c(=O)n(CC2CCCO2)c(O)c1/C=C1\C=Nc2ccccc21 (stereo not shown) [26662360],9.99
18,O=C(O)CCCNc1ccc(S(=O)(=O)Nc2ccccc2C(=O)O)cc1C(=O)O,2.13
19,COc1ccc(C(C)(C)C)cc1NC(=O)c1ccc2c(c1)SC1=NS(=O)(=O)CCN12,13.3
20,CCN(CC)CC.CCc1ccc(-n2c(=S)sc3c(=O)n(-c4ccccc4OC)c(=S)[nH]c32)cc1,6.81
21,Cc1cc(NS(=O)(=O)c2cn(C)nc2C)no1,22.5
22,CCN1CCN(C(=O)/C=C\C(=O)O)CC1,13.2

row,Compound,"hERG current change (%, negative = inhibition) at 1uM [%]"
1,C[C@H](NC(=O)c1nc[nH]c1C(=O)NCc1ccccc1)C(=O)OCc1ccccc1,9.57
2,O=c1cc([O-])nc(SCc2ccccc2)n1-c1ccccc1.[K+],3.07
3,CC(=O)Nc1ccc(S(=O)(=O)N2CCC(Oc3ccc(-n4cnnn4)cc3)CC2)cc1,-4.12
4,Cn1c(N/N=C/c2ccccc2)nc2sc3c(c2c1=O)CCC3,3.19
5,O=c1c(-c2nnc(SCc3ccc(Cl)c(Cl)c3)o2)cccn1Cc1ccccc1,10.1
6,COc1cc(C(C(=O)NC2CCCCC2)N(CCN2CCOCC2)C(=O)C2COc3ccccc3O2)cc(OC)c1OC (stereo not shown),26.1
7,Nc1ccc2c(c1)C(=O)N(CC1CCCO1)C2=O (stereo not shown),4.67
8,CCCSc1nc(C)cc(C)c1S(=O)(=O)c1ccccc1C,15.4
9,Cc1ccc(OCCC(=O)Nc2ccc3c(c2)OCO3)cc1,5.07
10,CC(C)C[C@@H](C(=O)N[C@@H](C(=O)O)c1ccccc1)N1C(=O)N2CCc3c([nH]c4ccccc34)[C@@]2(C)C1=O,-4.36
11,CCN(CC)S(=O)(=O)c1ccc(O)c(C(=O)OCC(=O)Nc2cc(C)c(C)cc2[N+](=O)[O-])c1,9.25
12,COc1ccc(C)cc1NC(=O)CN1C(=O)C(=O)N(C2CCCC2)C1=O,9.16
13,COc1ccccc1NC1=C(C)C(=O)CC1,12.1
14,COC(=O)c1ccc(Oc2nc(NC(C)C)nc(SC)n2)cc1,8.24
15,COc1ccccc1C(=O)N1CCN(c2ccc(N3CCOCC3)nn2)CC1,5.32
16,CCC(CC)NC(=O)COC(=O)c1cccc(C)c1O,7.4
17,CCN1CCN(CCNC(=O)CCc2c(C)c3c(C)nn(-c4ccccc4)c3n(C)c2=O)CC1,9.93
18,CCCCCCOc1ccc(N2C(=O)CC(N3CCC(C(=O)OCC)CC3)C2=O)cc1 (stereo not shown),9.46
19,Cc1ccc(NC(=O)c2ccc(NS(=O)(=O)c3cccc4cccnc34)cc2)cc1,10.9
20,Cn1c(CNC(=O)c2ccccc2F)nnc1SCC(=O)Nc1nnc(C2CC2)s1,5.25
21,CCOC(=O)C[C@H]1c2cc(F)ccc2S(=O)(=O)N1C1CCCCC1,9.65
22,O=C(O)c1nn(-c2ccc(Cl)cc2)ccc1=O,6.99

row,Compound,"hERG current change (%, negative = inhibition) at 1uM [%]"
1,N#CC(C#SN)=C1CCCCC1,8.66
2,Cc1ccc(C)c(C(=O)CSc2nnnn2C(C)C)c1,13.1
3,CCOC(=O)c1c(C)nc2sc3c(c2c1-c1ccc(OC)cc1)NC(c1ccccc1)NC3=O (stereo not shown),8.06
4,OCCOCCn1c(C(CO)Nc2nc(-c3cccc(Br)c3)cs2)nc2ccccc21 (stereo not shown),10.9
5,CNS(=O)(=O)c1cn(CC(=O)NCc2ccc(OC)cc2)cc1S(=O)(=O)NC,7.28
6,O=C(O)CC(NC(=O)/C(=C/c1ccccc1)NC(=O)c1ccccc1)c1ccccc1 (stereo not shown),14.2
7,Cc1ccc(C(=O)Nc2cc(C(C)C)c(O)c(C(C)C)c2)cc1,9.48
8,COCCn1c(C)cc(C(=O)CSc2nc3ccccc3c(=O)[nH]2)c1C,6.04
9,CCC(=O)NC(O)C(=O)c1ccc(C)cc1 (stereo not shown),8.13
10,COc1ccc(-c2nn(Cc3ccccc3)cc2C(=O)NC2CC2)cc1OC,2.07
11,O/N=C(\C[n+]1ccccc1)c1ccc(Br)cc1.[Br-],10.5
12,O=C1c2ccccc2C(=O)N1Cc1nc(-c2ccccn2)no1,7.43
13,O=C(N/N=C/c1sc(N2CCOCC2)nc1-c1ccccc1)c1ccccc1O,8.51
14,CC[C@H](C)/C=C(C)/C=C/C(=O)Cc1cc(O)c(C)c(O)c1C=O,-3.56
15,CCOc1cc(C2NCc3ccccc3-n3cccc32)ccc1OC.Cl (stereo not shown),5.55
16,COC(=O)c1ccc(NC(=O)CN(C2CCCCC2)S(C)(=O)=O)cc1,1.75
17,NC(=O)C1(N2CCCCC2)CCN(C(=O)c2ccc(C#CC3(O)CCCCC3)cc2)CC1,3.69
18,CCN1C(=O)C2C(C1=O)N1C(c3ccccc3)C3C(=O)N(CC)C(=O)C3N1C2c1ccccc1 (stereo not shown),14.7
19,CCCNC(=O)NC(=O)COC(=O)CC(NC(N)=O)c1ccc(Cl)cc1 (stereo not shown),12.9
20,Cc1cc(C)cc(-n2nnc(C(=O)NCc3ccc(Cl)cc3)c2N)c1,6.06
21,CCc1nc2oc3ccccc3c(=O)c2c(=O)n1Cc1ccc(OC)cc1,-6.12
22,COc1ccc(C(CNC(=O)C2COc3ccccc3O2)N2CCCC2)cc1 (stereo not shown),-0.312

row,Compound,"hERG current change (%, negative = inhibition) at 1uM [%]"
1,O=C(Cc1ccc(Cl)cc1)N/N=C/c1ccccc1,17.2
2,O=C(COC(=O)/C=C/c1cccc(F)c1)Nc1ccc2[nH]c(=O)[nH]c2c1,14.8
3,N#CCCN(C(=O)COC(=O)C1CCN(S(=O)(=O)c2cccs2)CC1)c1ccccc1,-1.47
4,Cc1ccc(S(=O)(=O)Nc2nnc(CC(C)(C)C)s2)cc1,-0.457
5,CC(C)Oc1ccc(C(=O)NNC(=O)c2ccccc2C(=O)O)cc1,7.89
6,CNc1c(NS(=O)(=O)c2cc(NC(C)=O)ccc2C)c(=O)oc2ccccc12,12.4
7,CS(=O)(=O)N(CC(=O)NC1CC1)C1CCCCC1,11.6
8,Cc1cc(-c2n[nH]c(=S)n2/N=C/c2ccc(Br)s2)n[nH]1,19.4
9,COc1ccc(OCc2cc(C(=O)NCC3CCOCC3)no2)c(Cl)c1,23.8
10,Cn1c(CNC(=O)Cc2ccc3c(c2)OCO3)nnc1SCc1ccccc1,9.16
11,N#CC(c1ccc(Cl)cc1)c1ncc(C(F)(F)F)cc1Cl (stereo not shown),10.5
12,CCn1c(SCC(=O)N(C)C2CCCCC2)nc2cc(S(N)(=O)=O)ccc21,5.03
13,O=C(Cc1ncn[nH]1)NCCc1ccccc1,4.38
14,Cc1cc(C)cc(NC(=O)COC(=O)COc2cccc3c2OC(C)(C)C3)c1,10.1
15,Nc1c(C(=O)NCc2ccc3c(c2)OCO3)c2nc3ccccc3nc2n1CCCN1CCOCC1,8.36
16,Cc1ccc(C(=O)N2CCc3ccccc32)cc1NC(=O)c1ccco1,-11.8
17,Cc1cc(C)cc(NC(=S)NCCCO)c1,3.99
18,COc1cc2c(=O)n(Cc3ccccc3)c(=O)n(CC(=O)NCC3CCCO3)c2cc1OC (stereo not shown),-14.4
19,O=C(Cc1cccs1)N1CCC(c2nc3c(nnn3Cc3ccc(F)cc3)c(=O)[nH]2)CC1,7.18
